According to PubChem BioAssay AID662 (National Center for Advancing Translational Sciences (NCATS), 2007):
Out of some 71,000 compounds screened, about 1,800 (2.5%) were called active. Inconclusive means that the source gave no clear call. Such entries were picked first, then a sample of the others. The call rests on the fitted dose curve; in most records, active means well fitted activation curve with a large enough effect in the signal ratio, with a control signal flat (not every such curve was filed as active); inconclusive means small, poorly fitted or top-dose-only effect, or effect the other way, or a change in a side signal; inactive means flat fitted curve, though single readings scatter; the % refers to the signal ratio. A potency beside an inconclusive call is a rough fit, not a confirmed value.

Assay: Cell signaling CRE-BLA (Fsk stim); on activity change, negative = inhibition: % of control where 0% means no effect
Conditions: CHO CRE-bla reporter (cAMP response element driving beta-lactamase), forskolin EC10, beta-lactamase ratio; activity change, negative = inhibition: at 38.2 µM (top of the series) unless noted
Description: NIH Molecular Libraries Screening Centers Network [MLSCN]
NIH Chemical Genomics Center [NCGC]
Assay Provider: Marshall W. Nirenberg, U.S. National heart lung & blood institute
Memories persist for different lengths of time, from seconds or minutes to a lifetime. There are two kinds of memory: short-term memory (STM) and long-term memory (LTM). STM lasts for minutes to hours, which maybe mediated by modifications of molecules involved in synaptic functions. LTM lasts for days or longer, and may be due to the formation of new synapses or restructuring of existing synapses. LTM, but not STM, requires gene transcription and synthesis of proteins. CREB (cyclic-AMP Responsive Element Binding Protein) is one of the candidates plays an important role for enhancement of some types of LTM. CREB, a family of transcription factors, regulates the transcription of genes containing cAMP Responsive Elements (CRE). CRE is a nucleotide sequence often found in the promoter regions of genes that are binding sites for CREB.
Using a beta-lactamase reporter-gene under control of cAMP responsive element, a cell-based assay [CellSensor(TM) CRE-bla CHO developed by Invitrogen Corp.] was used to measure forskolin-induced signaling. Library compounds were measured for their ability to modulate positively or negatively the action of EC10 NKH 477, a water soluble forskolin, on reporter gene activity. Compounds were screened in a titration series in 1536-well format. Positive and negative modulators were identified based on the AC50 values derived from the screening data.
NCGC Assay Protocol Summary
2000 cells/5uL in Opti-MEM medium containing 0.5% dialyzed FBS, 0.1 mM NEAA, 1 mM sodium pyruvate and 10 mM HEPES was dispensed into 1536-well plates and cells were cultured at 37 degrees Celsius overnight. […] And then the plates were incubated at 37 degrees Celsius for 3 hours. 1 uL of CCF4-dye mixture was added to each well. After incubated at room temperature for 2 hours the plates were measured on an EnVision plate reader at Excitation 405nm, Emission1=460nm and Emission 2=530nm. The %Activity was determined from the ratio of 460nm/530nm.
Keywords: NIH Roadmap, MLSCN, MLSMR, qHTS, NCGC, CRE, beta-lactamase reporter-gene assay.
Potency means the concentration at half of the fitted maximal effect; tags describe the fitted curve by direction and shape.

| Compound | activity change, negative = inhibition | Potency |
| --- | --- | --- |
| CC(=O)c1cccc(S(=O)(=O)N2CCN(c3nc4cc(C)cc(C)c4cc3C#N)CC2)c1 | inactive | – |
| Nc1ccc(O)cc1C(=O)OCC(=O)C12CC3CC(CC(C3)C1)C2 | – | inconclusive: 10 µM [rising, single point] |
| O=c1[nH]c(SCc2ccccc2Cl)nc2c1CCCC2 | inactive | – |
| Cc1nnc2c3ccccc3c(-c3ccccc3)nn12 | – | inconclusive: 5.01 µM [rising, partial curve] |
| Cc1cc2c(c(Sc3ccccc3)n1)C(=O)OC2 | inconclusive: 16.2% | – |
| COc1cccc(Cn2c(=O)c(-c3cn(C)c4ccccc34)nc3cnc(N4CCOCC4)nc32)c1 | – | inconclusive: 12.6 µM [rising, partial curve] |
| CCOC(=O)c1sc(NC(=O)c2c(C)noc2C)c(C(=O)OCC)c1C | inconclusive: -3.43% | – |
| COCc1cc(C)nc(SCC(=O)Nc2cccc3cccnc23)c1C#N | – | active: 10 µM |
| O=c1[nH]c2ccccc2nc1-c1cccs1 | – | inconclusive: 10 µM [rising, partial curve] |
| Cc1sc2nc(C(C)C)nc(SCC(=O)NCc3ccco3)c2c1C | – | inconclusive: 15.8 µM [rising, partial curve] |
| CCCOc1ccc(-c2nc(C#N)c(N3CCN(CC)CC3)o2)cc1 | – | inconclusive: 20 µM [rising, single point] |
| Cc1ccc(NC(=O)c2noc3c2CCCCC3)cc1C | – | inconclusive: 15.8 µM [rising, single point] |
| N#CC1=C(N)N(c2ccccc2C#N)C2=C(C(=O)CCC2)C1c1ccsc1 (stereo not drawn) | inactive | – |
| COCCCn1c(SCC(=O)Nc2ccc(C(=O)OC)cc2)nc2ccccc2c1=O | – | inconclusive: 3.98 µM [rising, single point] |
| COC(=O)c1ccc(Cn2cnc3ccccc3c2=O)cc1 | – | inconclusive: 15.8 µM [rising, single point] |
| COc1ccc(-n2cnnc2SCc2csc(-c3ccccc3)n2)cc1 | inconclusive: 21.8% | – |
| Cc1cccc(C)c1NS(=O)(=O)c1ccc(F)cc1 | inconclusive: -27.7% | – |
| CCOC(=O)Cn1c(=O)oc2cc(S(=O)(=O)NC3CCCc4ccccc43)ccc21 (stereo not drawn) | – | inconclusive: 10 µM [rising, partial curve] |
| Clc1cccc(Cl)c1Cn1cnc(=NCc2ccco2)c2[nH]cnc21 | – | inconclusive: 25.1 µM [rising, single point] |
| CC(C)[C@@H](CC(=O)N[C@@H]1CCCC[C@H]1C(=O)N[C@H](CC(=O)N[C@@H](CCC(=O)O)CC(=O)O)Cc1c[nH]c2ccccc12)NC(=O)C[C@H](CO)NC(=O)[C@@H]1CNCC[C@H]1N | inconclusive: -13.7% | – |
| Cc1cc(C)nc(-n2nc(C)c(C3(O)C(=O)Nc4ccc(F)cc43)c2N)n1 (stereo not drawn) | inconclusive: 1.97% | – |
| O=C(COC(=O)c1ccco1)NCC1CCCO1 (stereo not drawn) | inconclusive: 15.6% | – |
| Nc1nc2sc3c(c2c(=O)s1)CCCC3 | – | inconclusive: 10 µM [rising, partial curve] |
| O=C(CC1NCCNC1=O)OCc1ccccc1 (stereo not drawn) | – | inconclusive: 0.02 µM [rising, full curve, poor fit] |
| O[C@@H](COc1ccc(Cl)cc1Cl)CN1CCCC1 | inactive: -0.695% [at 7.6 µM] | – |
| O=C(Nc1ccc(F)cc1)N1CCC(c2nc3c(nnn3Cc3cccc(Cl)c3)c(=O)[nH]2)CC1 | – | inconclusive: 15.8 µM [rising, single point] |

| Compound | activity change, negative = inhibition | Potency |
| --- | --- | --- |
| O=[N+]([O-])c1cc(Cl)cc2c1nc(NCCO)c1ccccc12 | inconclusive: 24.6% [at 7.6 µM] | – |
| COc1ccc(C(=O)COC(=O)c2ccc(OC)c(OC)c2)cc1OC | inconclusive: 28% | – |
| COc1ccc(Cn2c(=O)sc3ccccc32)cc1 | inactive | – |
| COc1cccc(CNc2nc3nc(C)cc(C)n3n2)c1 | – | inconclusive: 10 µM [rising, single point] |
| COc1nc(NCC(C)C)nc(Oc2ccc(=O)n(-c3ccccc3)n2)n1 | – | active: 12.6 µM |
| CCn1nc(C(=O)NCCc2ccc(S(N)(=O)=O)cc2)c2ccccc2c1=O | – | inconclusive: 12.6 µM [rising, single point] |
| Cc1ccc2nc(N3CCN(Cc4ccc(F)cc4)C3=O)c(C)cc2c1 | – | inconclusive: 5.01 µM [falling, single point] |
| CCOC(=O)CCn1c2nc(C)cc(C)c2c(=O)n1-c1ccccc1 | inconclusive: 7.07% | – |
| COC(=O)c1c(NC(=O)CN2CCN(Cc3ccc4c(c3)OCO4)CC2)sc(C)c1C | – | inconclusive: 12.6 µM [rising, partial curve] |
| Cc1ccccc1-c1ccc2ncnc(N3CCN(C)CC3)c2c1 | – | inconclusive: 10 µM [rising, partial curve] |
| Cc1ccc(C)c2[nH]c(=O)c(CCNC(=O)c3ccc4c(c3)OCO4)cc12 | inactive | – |
| COc1ccc(-c2noc(CCC(=O)Nc3ccc4c(c3)OCCO4)n2)cc1 | inconclusive: -6.33% | – |
| CCn1cc(C(=O)Nc2ccc(-n3cnnn3)c(OC)c2)c(=O)c2ccc(C)nc21 | inactive | – |
| Cc1ccc(-c2cn3nc(C)c(C)nc3n2)cc1 | – | inconclusive: 12.6 µM [rising, partial curve] |
| Cc1cn([C@H]2C[C@H](N=[N+]=[N-])[C@H](CO)O2)c(=O)[nH]c1=O | inactive | – |
| CC(C)(C)n1ncc2c(=O)n(CC(=O)NCc3ccccc3)cnc21 | – | inconclusive: 12.6 µM [rising, single point] |
| CC(=O)Nc1cc(S(=O)(=O)C(F)(F)F)ccc1Cl | inactive | – |
| CCn1c(N)nc2c1c(=O)n(C)c(=O)n2C | – | inconclusive: 10 µM [rising, partial curve] |
| O=C(OCCN=C1NS(=O)(=O)c2ccccc21)C1CC(=O)N(c2ccc(Cl)cc2)C1 (stereo not drawn) | inconclusive: -4.96% [at 7.6 µM] | – |
| COc1cc(NC(=O)c2cc3nc(C)cc(C)n3n2)c(OC)cc1Cl | – | inconclusive: 7.94 µM [rising, partial curve] |
| COc1cc2c(cc1OC)C(C(=O)NCC1COc3ccccc3O1)C(c1cccnc1)N(C)C2=O (stereo not drawn) | inactive | – |
| Cn1c(=O)c2c(nc(N/N=C\c3ccccc3C(=O)O)n2C)n(C)c1=O | inactive: -3.66% [at 7.6 µM] | – |
| Cc1cnc(CNc2ncnc3ccc(-c4ccc5c(c4)OCO5)cc23)cn1 | – | inconclusive: 15.8 µM [rising, partial curve] |
| c1ccc(-c2noc(-c3ccc4c(c3)OCO4)n2)nc1 | inconclusive: 5.87% | – |
| CC(=O)Nc1ccc(C(=O)CCl)cc1 | inconclusive: -3.24% | – |
| COC(=O)[C@@]1(Cc2ccccc2)[C@H]2c3cc(C(=O)N4CCCC4)n(CCc4ccccn4)c3C[C@H]2CN1C(=O)c1ccccc1 | inconclusive: -13.4% | – |

| Compound | activity change, negative = inhibition | Potency |
| --- | --- | --- |
| CCN(C#N)c1nc(NC(C)C)nc(NC(C)C)n1 | inactive | – |
| Cn1ccc2cc3c(cc21)CCN3C(=O)Nc1cccnc1 | inconclusive: 27.1% | – |
| O=C(CSc1nc2nc[nH]c2c(=O)[nH]1)NC1CCCCC1 | inconclusive: 17.7% | – |
| N#Cc1nc(Cc2ccccc2)oc1N1CCC(Cc2ccccc2)CC1 | inconclusive: 0.857% | – |
| c1ncc(CC2CCNCC2)[nH]1 | inconclusive: -17.7% | – |
| Cc1cc(C(=O)CSc2nnc(-c3ccco3)o2)c(C)n1Cc1ccco1 | inactive | – |
| COCCNc1nc(-c2ccccc2C)nc2ccccc12 | inconclusive: 8.99% | – |
| Fc1ccc(-c2csc3nnc(SCc4cccnc4)n23)cc1 | – | inconclusive: 12.6 µM [rising, single point] |
| C=CCNc1sc(C(=O)C(C)(C)C)c(N)c1C#N | – | inconclusive: 10 µM [rising, partial curve] |
| CCOC(=O)CCn1nc(-c2ccccc2)cc1N | inconclusive: -13.5% | – |
| CN(C)c1ncc2nc(-c3cc(F)cc(F)c3)c(=O)n(C[C@H]3CCCO3)c2n1 | – | inconclusive: 0.00794 µM [rising, full curve, poor fit] |
| CNC[C@H](O)c1ccc(OC(=O)C(C)(C)C)c(OC(=O)C(C)(C)C)c1 | inconclusive: -2.83% [at 17.1 µM] | – |
| CCOC(=O)c1sc(NC(=O)CSc2nc(-c3ccco3)cc(C(F)(F)F)n2)c(C#N)c1C | inconclusive: -22.3% | – |
| COc1ccc(C2C=C(c3ccccc3)Nc3nc(CCCO)nn32)cc1 (stereo not drawn) | – | inconclusive: 12.6 µM [falling, partial curve] |
| COc1ccccc1-n1c(SCC(=O)NC(C)(C)C)nc(O)cc1=O | inactive | – |
| NC1=NC2(CCC(c3ccccc3)CC2)n2c(nc3ccccc32)N1 (stereo not drawn) | – | inconclusive: 1.58 µM [falling, full curve] |
| CCN(C(=O)c1coc(=O)c(Br)c1)c1ccc2c(c1)OCO2 | inconclusive: 14.4% | – |
| CN(Cc1ccccc1)Cc1nc2c(c(=O)n(C)c(=O)n2C)n1CCc1ccccc1 | inconclusive: 25% | – |
| COc1ccc(N=CC2=C(O)CC(C)(C)CC2=O)cc1 | inconclusive: 24.5% | – |
| C[C@@H]1O[C@@H](n2cc(F)c(=O)[nH]c2=O)[C@H](O)[C@@H]1O | inconclusive: -17% | – |
| CN(CC(=O)N1CCc2ccccc21)S(=O)(=O)c1cccs1 | inconclusive: -3.48% | – |
| N#Cc1nc(-c2cccs2)oc1N1CCOCC1 | – | inconclusive: 12.6 µM [rising, single point] |
| COc1cc(C2/C(=C(\O)c3ccc4c(c3)CC(C)O4)C(=O)C(=O)N2CCCn2ccnc2)ccc1O (stereo not drawn) | inactive | – |
| Cc1c[n+]([O-])n(-c2ccc(C(=O)O)cc2)n1 | inconclusive: 15.2% | – |
| Nc1cc(S(=O)(=O)O)ccc1O | inactive | – |
| COCn1c(-c2ccc(OC)c(OC)c2)nc2ccccc21 | – | inconclusive: 1 µM [rising, full curve, poor fit] |
